# According to PubChem BioAssay AID463173 (ICCB-Longwood Screening Facility, Harvard Medical School, 2010):
# In all, about 52,000 compounds went through this assay and about 1,700 (3.3%) were called active. Rule as the data show it: active = survival mostly below about 52% (no sharp cut-off); inactive = mostly above about 56%. The list shows a part of the results.
# Tested on: Wild type
# Test: S. aureus survival, RN4220 and DeltatarO strains – OD600, teichoic acid synthesis inhibitors, primary screen (AID 463173)
# Conditions: S. aureus RN4220 wild type/DeltatarO growth, OD600, 18 h, active compounds read low, screened at 18.75 µg/mL (by protocol)
row,Compound,survival
1,CCOc1ccc(NC(=O)CCCc2nc(-c3cccc(OC)c3)no2)cc1,inactive: 87%
2,Cc1ccc(CNC(=O)c2sc3nc(C)cc(C)c3c2-n2cccc2)cc1,inactive: 98%
3,COc1ccc2oc(=O)c(-c3nnc(-c4ccccc4)o3)cc2c1,inactive: 110%
4,N#CCCn1nc(-c2ccccc2)cc1-c1ccccc1,inactive: 113%
5,COc1ccc2[nH]c(=O)c(CN(C(=O)c3cccc(Cl)c3)c3ccccc3OC)cc2c1,inactive: 81%
6,COc1ccc(S(=O)(=O)NCCc2csc3nc(-c4ccc(Cl)cc4)nn23)cc1C,inactive: 78%
7,CS(=O)(=O)N1CCc2cc(S(=O)(=O)NCc3ccccc3Cl)ccc21,inactive: 72%
8,CC(=O)Nc1ccccc1OCc1cc(=O)n2c3c(sc2n1)CCCC3,inactive: 120%
9,Cn1c2ccccc2c2cnn(CC(=O)NCc3ccc(Cl)cc3)c(=O)c21,inactive: 92%
10,Cc1cccc(Cn2c(C)c(C)c3cc(C(=O)NCc4ccco4)ccc32)c1,inactive: 78%
11,COC(=O)CN(c1ccccn1)S(=O)(=O)c1ccccc1,inactive: 99%
12,Cc1ccc(Sc2c(C)nn(C(=O)COc3ccccc3)c2C)cc1,active: 9%
13,CC1=C(c2ccc(F)cc2)S(=O)(=O)N=C1N1CCC(C(=O)NCCc2ccco2)CC1,inactive: 129%
14,Cn1cnc(S(=O)(=O)N2CCC(C(=O)NCc3ccccc3)CC2)c1,inactive: 88%
15,COc1ccc(-c2nc(Cn3c(SCc4cccc(Cl)c4)nc4ccncc43)c(C)o2)cc1,inactive: 132%
16,O=C(CN1CCN(Cc2ccc(F)cc2Cl)S1(=O)=O)Nc1ccc(F)cc1,inactive: 159%
17,Cc1cccc(-n2c(-c3ccco3)nc3c(cnn3-c3ccccc3C)c2=O)c1,inactive: 132%
18,COc1ccccc1NC(=O)CSc1nc2ccccc2c(=O)n1CCC(=O)NC1CCCCC1,inactive: 82%
19,Cc1ccc(C(c2sc3nc(-c4ccco4)nn3c2O)N2CCOCC2)cc1 (centres undefined),inactive: 77%
20,COC(=O)c1cc2c(cc1NC(=O)c1c(C)nn(-c3ccc(C)cc3)c1-n1cccc1)OCO2,inactive: 80%
21,CCOC(=O)c1c(S(=O)(=O)N2CCCC(C(=O)N(C)Cc3ccccc3)C2)c(C)n(C)c1C (centres undefined),inactive: 73%
22,COc1cc(NC(=O)Cn2ccn(Cc3ccccc3OC)c(=O)c2=O)cc(OC)c1,inactive: 84%
23,CCOc1ccc(NC(=O)Cn2c(=O)oc3cc(S(=O)(=O)NC4CCCC4)ccc32)cc1,inactive: 81%

row,Compound,survival
1,Cc1ccc(NC(=O)Cn2c(C)cc(C)c(C#N)c2=O)cc1,inactive: 73%
2,Cc1nn(C(=O)c2ccccc2)c(C)c1Sc1ccc(Cl)cc1,active: 6%
3,Clc1cc2c(cc1Cl)Nc1cc(Cl)c(Cl)cc1N2,inactive: 68%
4,Cc1ccc(Cn2nc(C)c(NC(=O)c3cc(-c4ccc(F)cc4)on3)c2C)cc1,inactive: 87%
5,COc1ccccc1N1CCN(CC(=O)c2ccc(F)cc2)CC1,inactive: 110%
6,Cc1ccccc1NC(=O)C1CCC(CNS(=O)(=O)c2ccc3c(c2)C(C)(C)C(=O)N3C)CC1 (centres undefined),inactive: 88%
7,CCOc1ccc(CCNC(=O)c2cn(C)c3ccc(S(=O)(=O)N4CCOCC4)cc3c2=O)cc1OCC,inactive: 67%
8,CCN(CC)c1ccc2cc(C(=O)Nc3cccc(OC)c3)c(=O)oc2c1,inactive: 100%
9,Cc1cc(NS(=O)(=O)c2ccc(NC(=O)c3ccccc3F)cc2)nc(C)n1,inactive: 71%
10,Cc1ccc(-n2ncc3c(N(C)Cc4ccccc4)ncnc32)cc1,inactive: 85%
11,Cc1cccc(OCC(=O)NCC2(N3CCN(C)CC3)CCCCC2)c1C,inactive: 107%
12,O=c1oc(-c2ccco2)nc2ccccc12,inactive: 100%
13,COc1ccc(OCc2ccc(-c3nc(C#N)c(N4CCC(C)CC4)o3)o2)cc1,inactive: 73%
14,O=C(CSc1nnc(Cc2ccccc2)o1)c1ccccc1,inactive: 98%
15,COc1cccc(C(=O)Nc2cc(C)on2)c1,inactive: 115%
16,Cc1ccc(NC(=O)c2ccc3snnc3c2)cc1Cl,inactive: 118%
17,CCc1ccc(S(=O)(=O)c2nnn(-c3ccc(F)cc3)c2N)cc1,inactive: 76%
18,C=C(C)Cn1c(SCC(=O)Nc2cc(C)ccc2C)nc2sc3c(c2c1=O)CCCC3,inactive: 121%
19,COc1cc(OC)cc(C(=O)N2CCC(C(=O)NCCc3ccccc3)CC2)c1,inactive: 105%
20,COc1ccc(-c2ccnc3[nH]n(-c4ccccc4)c(=O)c23)cc1,inactive: 88%
21,CCC(=O)N1CCc2cc(Br)cc(S(=O)(=O)CCC(=O)N3CCN(c4ccccc4OC)CC3)c21,inactive: 84%
22,CCOC(=O)c1ccc(N2CCN(c3ccc(F)cc3)CC2)c(NC(=O)Nc2cccc(OC)c2)c1,inactive: 67%
23,COc1ccc(OCC(=O)Nc2ccc3c(c2)OCO3)cc1,inactive: 113%

row,Compound,survival
1,COc1ccccc1N1CCN(S(=O)(=O)c2ccc3[nH]c4c(c3c2)CCCC4)CC1,inactive: 71%
2,CCOc1cc(-c2nnc(SCC(=O)NCc3ccccc3)nc2-c2ccc(OC)c(OCC)c2)ccc1OC,inactive: 93%
3,COc1ccc(/C=C\c2onc(C)c2S(=O)(=O)N2CCC(C(=O)Nc3ccc(Cl)cc3)CC2)cc1,inactive: 77%
4,COc1ccc(-c2ccc(Nc3ccc(C(=O)N4CCCCCC4)cc3)nn2)cc1,inactive: 120%
5,COc1ccc(C(=O)N2CC(=O)Nc3ccc(C)cc3C2c2ccccc2)c(OC)c1 (centres undefined),inactive: 74%
6,Cc1ccc(-n2ncc(C(=O)N3CCCCC3)c2C2CCN(C(=O)OC(C)(C)C)CC2)cc1C,inactive: 67%
7,CCc1ccc(NC(=O)C2CCCN(S(=O)(=O)c3ccc4c(c3)CCCN4C(C)=O)C2)cc1 (centres undefined),inactive: 71%
8,CC(=O)c1ccc(NC(=O)Cn2c(=O)c3cccn3c3ccccc32)cc1,inactive: 94%
9,Cc1ccc(NC(=O)Cn2c(=O)n(CCC(=O)N3CCc4ccccc4C3)c(=O)c3ccccc32)cc1,inactive: 93%
10,Cc1cc(C)cc(S(=O)(=O)Nc2cccc(-c3ccc(N4CCOCC4)nn3)c2)c1,inactive: 117%
11,COc1ccc(Cn2c(C(=O)O)c(CNCCc3cccs3)c3ccc(C)cc32)cc1,inactive: 77%
12,COc1ccccc1CNC(=O)c1ccc2c(c1)N(Cc1cccc(Cl)c1)C(=O)c1ccccc1S2(=O)=O,active: 10%
13,Cc1ccc(Cn2c(C(=O)O)c(CNC3CCCCCC3)c3ccc(C)cc32)cc1,inactive: 74%
14,CC(C)(C)C(=O)NCCc1nc2ccccc2n1CCCCOc1ccc(Cl)cc1,inactive: 28%
15,Cc1oc2ncn(CC(C)C)c(=O)c2c1C(=O)Nc1cc(F)ccc1F,inactive: 65%
16,COc1ccc(-n2nc3c(N4CCCC(C(=O)NCc5cccc(F)c5)C4)nnc(C)c3c2C)cc1 (centres undefined),inactive: 67%
17,NNc1ccc2nnc(C(F)(F)F)n2n1,inactive: 109%
18,COc1ccc(-c2nc(CNS(=O)(=O)c3ccccc3)cs2)cc1,inactive: 96%
19,COc1cccc(CNC(=O)c2cc3c(s2)-c2c(C)cccc2OC3)c1,inactive: 87%
20,Cc1ccc(C)c(OCCn2cc(C(=O)c3ccco3)c3ccccc32)c1,inactive: 108%
21,CCn1c(CNC(=O)C23CC4CC(CC(C4)C2)C3)nnc1SCC(=O)Nc1ccccc1,inactive: 77%
22,CC(C)(C)NC(=S)Nc1ccc2nccnc2c1,inactive: 105%
23,COc1ccccc1C(=O)NC1(C(F)(F)F)C(=O)Nc2c1c(=O)[nH]c(=O)n2-c1ccccc1 (centres undefined),inactive: 80%

row,Compound,survival
1,Cc1oc2ncn(C)c(=O)c2c1C(=O)N1CCN(c2ccccc2)CC1,inactive: 86%
2,O=C(Oc1ccc(F)cc1)c1nc(SCc2ccccc2F)ncc1Cl,inactive: 90%
3,Cn1c(=O)c2c([nH]c(=O)n2Cc2ccc(Cl)cc2Cl)n(C)c1=O,inactive: 72%
4,Cc1ccc2c(c1)-c1nc(-c3ccc4c(c3)NC(=O)CO4)cc(-c3ccc(Cl)cc3)c1CO2,inactive: 72%
5,CC1CCCN(CCCNC(=O)c2cn(C)c3ccc(S(=O)(=O)N(C)C4CCCCC4)cc3c2=O)C1 (centres undefined),inactive: 87%
6,Cc1ccc(NS(=O)(=O)c2ccc3nc(-c4ccccc4)[nH]c3c2)c(Cl)c1,inactive: 60%
7,Cc1ccc2nc(N3CCN(C(=O)C4CC4)CC3)sc2c1,inactive: 79%
8,CCCc1c(C)c2ccc(O)c(CN3CCN(c4ccc(F)cc4)CC3)c2oc1=O,inactive: 92%
9,COc1ccccc1CNC(=O)CN1C(=O)CSc2ccc(S(=O)(=O)N3CCCCC3)cc21,inactive: 83%
10,COC(=O)c1c(Oc2ccc(C(C)=O)cc2)nnc(-c2ccccc2)c1-c1ccccc1,inactive: 95%
11,CCN(c1ccccc1)c1ncnc2c1cnn2-c1ccc(C)cc1C,inactive: 66%
12,CC1=C(C(=O)N2CCN(c3cccc(C(F)(F)F)c3)CC2)C2(CCCCC2)OC1=O,inactive: 123%
13,CCOC(=O)c1ccccc1NC(=O)c1cc2c(=O)oc3ccc(C)cc3c2s1,inactive: 86%
14,O=C1CS/C(=N/c2nc(-c3ccccc3)cs2)N1,inactive: 128%
15,Cc1ccc(NC(=O)Cn2cc3c(n2)CCCCC3)cc1,inactive: 90%
16,O=C(Nc1ccc(Cl)cc1Cl)c1cc(S(=O)(=O)N2CCc3ccccc32)ccc1F,inactive: 72%
17,CCOC(=O)c1noc2nc(C)n(CC(=O)Nc3ccccc3F)c(=O)c12,inactive: 124%
18,CCc1ccc(C2CC(=O)Nc3cc4c(cc32)OCO4)cc1 (centres undefined),inactive: 78%
19,Cc1cccc(N2CCN(C(=O)c3c(C)oc4ncnc(N5CCCCC5)c34)CC2)c1C,inactive: 67%
20,Cc1ccc(C)c(Nc2nc3c(S(=O)(=O)c4ccc(C(C)C)cc4)nnn3c3ccsc23)c1,inactive: 71%
